Laboratory results published in the supplement of paper PMC10126150.
Sequences with one replicate were seen in a single cluster, so their values are uncertain.

Each sequence was assayed on ATP (assay: switch fluorescence ratio, 500 uM ATP over buffer (Cy3 cluster intensity, sum of 5 cycles each) (fold (ratio)); higher = stronger signal-on switching upon ATP binding; sequences stand for … in TCGTCGGCAGCGTCAGATGTGTATAAGAGACAGTTTTTTTTTTTTTTTTTTTTTTTTT…TC). Settings: aptamer strand: ATP DNA aptamer (quencher-CACCTGGGGGAGTATTGCGGAGGAAGG + anchor), 100 nM annealed; ATP concentration: 500 uM; one replicate.
How it was run: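 Imaging in selection buffer was followed by imaging after 15 min with 500 uM ATP at 22 °C, for Cy3-labelled switching-strand clusters annealed to 100 nM quencher-labelled ATP aptamer on a modified Illumina MiSeq flow-cell. Five of these buffer/ATP cycles ran, separated by NaOH stripping and re-annealing. The fluorescence ratio per cluster is summed target-cycle over summed buffer-cycle Cy3 intensity, averaged per switch-domain sequence; clusters outside 100-1000 RFU were removed.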
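Further: ATP exposure 15 min at 22 °C before imaging.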

Row | Sequence | switch fluorescence ratio
1 | GGGCGCGCTA | 0.98
2 | GGGCGGCGAG | 0.983
3 | GGGCGGTACG | 1.05
4 | GGGCGGTCTG | 1.01
5 | GGGCTAATCT | 1.04
6 | GGGCTACTGA | 0.994
7 | GGGCTATACG | 1.07
8 | GGGCTATAGG | 1.05
9 | GGGCTCAATA | 0.957
10 | GGGCTCAGAC | 1.02
11 | GGGCTCATTG | 0.967
12 | GGGCTCCACA | 1.02
13 | GGGCTCCCGC | 1.01
14 | GGGCTGAGGT | 0.982
15 | GGGCTGTCGA | 1.03
16 | GGGCTTACCA | 0.996
17 | GGGCTTTAAC | 0.975
18 | GGGGAATCAT | 0.921
19 | GGGGAGCACG | 0.981
20 | GGGGAGCGAA | 1.01
21 | GGGGAGGGG | 0.968
22 | GGGGAGTCTC | 1.01
23 | GGGGATCGGC | 0.951
24 | GGGGATTGGT | 0.981
25 | GGGGCAACCG | 0.983
26 | GGGGCATGG | 1.05

Row | Sequence | switch fluorescence ratio
27 | GGGGCCAAGA | 0.991
28 | GGGGCCTACT | 0.946
29 | GGGGCCTCGT | 1
30 | GGGGCGCGAT | 1.03
31 | GGGGCGTGTC | 0.971
32 | GGGGGACCCG | 0.975
33 | GGGGGATCAA | 0.996
34 | GGGGGCGAAA | 1.01
35 | GGGGGCGAGT | 1.02
36 | GGGGGCGT | 0.966
37 | GGGGGTAAGC | 1.06
38 | GGGGGTCGTA | 1.02
39 | GGGGGTGCAA | 1.03
40 | GGGGGTGCG | 0.971
41 | GGGGTACTAA | 1.15
42 | GGGGTATAAG | 0.978
43 | GGGGTATAC | 3.07
44 | GGGGTCAGAA | 0.963
45 | GGGGTCCGCT | 1.01
46 | GGGGTCGAGA | 1.01
47 | GGGGTGACTT | 1
48 | GGGGTGAGAT | 0.97
49 | GGGGTGAGCG | 1.03
50 | GGGGTGCAAA | 0.969
51 | GGGGTGGCG | 0.942
52 | GGGGTTACTA | 1.02

Row | Sequence | switch fluorescence ratio
53 | GGGTAAGCAC | 1.18
54 | GGGTAGCGGC | 1.04
55 | GGGTAGCTGT | 1.02
56 | GGGTAGTGC | 0.975
57 | GGGTATACGA | 1.02
58 | GGGTCAACAC | 1.07
59 | GGGTCAAGAG | 1.02
60 | GGGTCACGGG | 1.04
61 | GGGTCACTGC | 0.991
62 | GGGTCATAGG | 1
63 | GGGTCATCCG | 1.01
64 | GGGTCGAACT | 0.961
65 | GGGTCGGGCA | 1
66 | GGGTGAACCG | 0.962
67 | GGGTGACGCA | 1.02
68 | GGGTGACTAG | 0.97
69 | GGGTGAGCCC | 1.01
70 | GGGTGCGCAC | 1.08
71 | GGGTGGCTTC | 0.976
72 | GGGTGGGAAA | 0.932
73 | GGGTGTAACC | 1.03
74 | GGGTGTAAGT | 1.04
75 | GGGTGTAGGC | 1.07
76 | GGGTGTCAAT | 1.01
77 | GGGTGTCGG | 0.987
